Data taken from the supplement of paper PMC4967469.
pIC50: −log10 of the molar value. The IC50 comes from the fitted curve, where viability falls to half of the control; fits outside the tested doses are given as limits. The AUC spans the tested range (256-fold, ending at the top dose) of the same fit; the more sensitive the line, the further below 1. For part of these data: The top dose, if marked as inferred, comes from the curve model; the source does not state it. For part of these data: Drugs with an entry number were screened twice under separate entries, and the two screens often disagree.

What was measured:
Experiment in all cases: Viability of human cancer cell lines after 72 h of drug (GDSC screen)
VNLG/124 = compound: CCCC(=O)OCc1ccc(OC(=O)/C=C(C)/C=C/C=C(C)/C=C/C2=C(C)CCCC2(C)C)cc1 [VNLG/124]; details: top dose 5.12 µM; top dose inferred
Description: (§1)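 Human cancer cell lines in 384-well plates, medium with 10% serum, drug for 72 h over a 256-fold dose range (nine 2-fold or five 4-fold steps up to the top dose). Adherent lines were fixed and stained with the nucleic acid dye Syto60, suspension lines read with resazurin; signal relative to control wells, capped at 0 and 100%. One two-parameter sigmoid per drug and line, fitted in a mixed model over all curves with the slope shared within a line.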

OSI-930 = compound: O=C(Nc1ccc(OC(F)(F)F)cc1)c1sccc1NCc1ccnc2ccccc12 [OSI-930]; details: top dose 10.24 µM
Description: as §1

Tamoxifen = compound: CC/C(=C(\c1ccccc1)c1ccc(OCCN(C)C)cc1)c1ccccc1 [Tamoxifen]; details: top dose 5 µM
Description: as §1

Masitinib = compound: Cc1ccc(NC(=O)c2ccc(CN3CCN(C)CC3)cc2)cc1Nc1nc(-c2cccnc2)cs1 [Masitinib]; details: top dose 20 µM
Description: as §1

Elesclomol = compound: CN(NC(=O)CC(=O)NN(C)C(=S)c1ccccc1)C(=S)c1ccccc1 [Elesclomol]; details: top dose 0.2 µM; top dose inferred
Description: as §1

BX-912 = compound: O=C(Nc1cccc(Nc2ncc(Br)c(NCCc3cnc[nH]3)n2)c1)N1CCCC1 [BX-912]; details: top dose 10.24 µM; top dose inferred
Description: as §1

NSC-87877 = compound: O=S(=O)(O)c1ccc2cc(N=Nc3cc(S(=O)(=O)O)c4cccnc4c3O)ccc2c1 [NSC-87877]; details: top dose 16 µM; top dose inferred
Description: as §1

LAQ824 = compound: O=C(/C=C/c1ccc(CN(CCO)CCc2c[nH]c3ccccc23)cc1)NO [LAQ824]; details: top dose 1.024 µM; top dose inferred
Description: as §1

Bleomycin = compound: Cc1c(N)nc([C@H](CC(N)=O)NC[C@H](N)C(N)=O)nc1C(=O)N[C@H](C(=O)N[C@H](C)[C@@H](O)[C@H](C)C(=O)N[C@H](C(=O)NCCc1nc(-c2nc(C(=O)NCCC[S+](C)C)cs2)cs1)[C@@H](C)O)[C@@H](OC1OC(CO)C(O)C(O)C1OC1OC(CO)C(O)C(OC(N)=O)C1O)c1cnc[nH]1 [Bleomycin]
Description: as §1

[1] = top dose 50 µM, screen: GDSC drug entry 1378, top dose inferred
[2] = top dose 64 µM, screen: GDSC drug entry 190

Row | Cell Line | AUC (VNLG/124) | pIC50 (VNLG/124) | AUC (OSI-930) | pIC50 (OSI-930) | AUC (Tamoxifen) | pIC50 (Tamoxifen) | AUC (Masitinib) | pIC50 (Masitinib) | AUC (Elesclomol) | pIC50 (Elesclomol) | AUC (BX-912) | pIC50 (BX-912) | AUC (NSC-87877) | pIC50 (NSC-87877) | AUC (LAQ824) | pIC50 (LAQ824) | AUC (Bleomycin; [1]) | pIC50 (Bleomycin; [1]) | AUC (Bleomycin; [2]) | pIC50 (Bleomycin; [2])
1 | MRK-nu-1 (breast, suspension) | 0.973 | < 5.29 | 0.967 | < 4.99 | 0.988 | < 5.30 | 0.99 | < 4.70 | 0.979 | < 6.70 | 0.99 | < 4.99 | 0.977 | < 4.80 | 0.586 | 6.97 | 0.896 | < 4.30 | 0.367 | 5.75
2 | MS751 (cervix, adherent) | 0.989 | < 5.29 | 0.982 | < 4.99 | 0.976 | < 5.30 | 0.973 | < 4.70 | 0.587 | 7.67 | 0.969 | < 4.99 | 0.986 | < 4.80 | 0.567 | 7.02 | 0.775 | 4.74 | 0.727 | 4.78
3 | MS-1 (small cell lung carcinoma, suspension) | 0.989 | < 5.29 | 0.968 | < 4.99 | 0.99 | < 5.30 | 0.826 | 4.98 | 0.922 | < 6.70 | 0.916 | < 4.99 | 0.991 | < 4.80 | 0.302 | 7.72 | 0.978 | < 4.30 | 0.954 | < 4.19
4 | MZ2-MEL (melanoma, adherent) | 0.975 | < 5.29 | 0.902 | < 4.99 | 0.97 | < 5.30 | 0.705 | 5.28 | 0.522 | 7.84 | 0.897 | < 4.99 | 0.983 | < 4.80 | 0.466 | 7.29 | 0.829 | 4.41 | 0.458 | 5.52
5 | Mewo (melanoma, adherent) | 0.982 | < 5.29 | 0.978 | < 4.99 | 0.983 | < 5.30 | 0.946 | < 4.70 | 0.602 | 7.60 | 0.983 | < 4.99 | 0.836 | 4.86 | 0.843 | 6.02 | 0.509 | 5.48 | 0.839 | 4.25
6 | NB12 (neuroblastoma, adherent) | 0.953 | < 5.29 | 0.924 | < 4.99 | 0.967 | < 5.30 | 0.901 | < 4.70 | 0.705 | 7.24 | 0.864 | < 4.99 | 0.976 | < 4.80 | 0.512 | 7.16 | 0.767 | 4.60 | 0.839 | < 4.19
7 | NCI-H69 (small cell lung carcinoma, suspension) | 0.985 | < 5.29 | 0.978 | < 4.99 | 0.952 | < 5.30 | 0.926 | < 4.70 | 0.919 | < 6.70 | 0.789 | 5.29 | 0.983 | < 4.80 | 0.5 | 7.19 | 0.537 | 5.40 | 0.827 | 4.34
8 | NCI-H187 (small cell lung carcinoma, suspension) | 0.988 | < 5.29 | 0.988 | < 4.99 | 0.985 | < 5.30 | 0.926 | < 4.70 | 0.969 | < 6.70 | 0.804 | 5.25 | 0.988 | < 4.80 | 0.51 | 7.17 | 0.961 | < 4.30 | 0.975 | < 4.19
9 | NCI-H209 (small cell lung carcinoma, suspension) | 0.982 | < 5.29 | 0.986 | < 4.99 | 0.977 | < 5.30 | 0.946 | < 4.70 | 0.91 | < 6.70 | 0.728 | 5.52 | 0.962 | < 4.80 | 0.386 | 7.52 | 0.777 | 4.67 | 0.789 | 4.52
10 | NCI-H211 (small cell lung carcinoma, adherent) | 0.981 | < 5.29 | 0.983 | < 4.99 | 0.977 | < 5.30 | 0.825 | 4.94 | 0.973 | < 6.70 | 0.768 | 5.43 | 0.973 | < 4.80 | 0.223 | 7.99 | 0.842 | 4.47 | 0.405 | 5.65
11 | NCI-H322M (lung adenocarcinoma, suspension) | 0.985 | < 5.29 | 0.985 | < 4.99 | 0.976 | < 5.30 | 0.957 | < 4.70 | 0.964 | < 6.70 | 0.98 | < 4.99 | 0.987 | < 4.80 | 0.909 | < 5.99 | 0.924 | < 4.30 | 0.983 | < 4.19
12 | NCI-H358 (lung adenocarcinoma, adherent) | 0.981 | < 5.29 | 0.928 | < 4.99 | 0.982 | < 5.30 | 0.87 | < 4.70 | 0.766 | 7.09 | 0.854 | 5.02 | 0.981 | < 4.80 | 0.448 | 7.34 | 0.85 | 4.35 | 0.267 | 6.10
